Sequences with one replicate were seen in a single cluster, so their values are uncertain.
Test system: ATP
Assay: switch fluorescence ratio, 500 uM ATP over buffer (Cy3 cluster intensity, sum of 5 cycles each) (fold (ratio)); higher = stronger signal-on switching upon ATP binding; sequences stand for … in TCGTCGGCAGCGTCAGATGTGTATAAGAGACAGTTTTTTTTTTTTTTTTTTTTTTTTT…TC
Conditions: aptamer strand: ATP DNA aptamer (quencher-CACCTGGGGGAGTATTGCGGAGGAAGG + anchor), 100 nM annealed; ATP concentration: 500 uM; one replicate
How it was run: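 Cy3-labelled switching-strand clusters on a modified Illumina MiSeq flow-cell were annealed to 100 nM quencher-labelled ATP aptamer, imaged in selection buffer, then imaged after 15 min with 500 uM ATP at 22 °C. Five buffer/ATP cycles ran, with NaOH stripping and re-annealing between them. The fluorescence ratio is summed target-cycle over summed buffer-cycle Cy3 intensity per cluster, averaged per switch-domain sequence. Clusters outside 100-1000 RFU were excluded.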
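Note: ATP exposure 15 min at 22 °C before imaging.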

Sequence	switch fluorescence ratio
GAGAGTCGGG	0.938
TTGCATCCAG	1.07
CGTAAAGTGG	1.01
TGTGTTAATT	0.998
TTGAGCAATC	3.94
GAGCGCGGGA	1.01
GGCTGTAGTG	1.01
TGAGTTCGTG	1
AGCCGGACGA	1.06
GAGAGGATTG	0.987
TATTCCCGTT	1
TCTCGTTGCG	1
GTCCTAACGT	0.969
CGCGTCGCCC	1.02
CGTCGGTAAC	1.31
TGGCCGGAAG	0.965
AAAATAAATC	1.05
ATGGAGATGG	0.984
CTGTTGTGTA	1.01
TATACTTAGC	1.01
ATCCTACAAC	1.04
CCTTATCGCT	1.28
ATTCATGTT	0.942
AACGCATTTA	1.12
AATAAGATCA	1

Sequence	switch fluorescence ratio
TTCTTCGGA	0.968
CGTCCACGGG	1
ATTGGGGTAC	1.01
GCGTAACTTG	1
CTTGAGAGTG	1.03
CAGACAAAAT	1.15
ATAGATATG	1.01
CAAGTCCTAA	0.986
TCCCCTGATG	1.51
CGCAGGGGTA	1.08
TTGCTAGGTT	0.981
TATATTGGGT	1.01
AGTCAAGTAA	1.01
AAGAGTACTT	1.04
CGGGCCCCAG	1.24
CAAACGGTGC	1.32
TGGCGCGCGG	1.02
ATCTGGGGCT	0.975
CCTACTACGG	1.11
AATATTAAGT	0.981
ACCATCACGT	1.3
ACAGCTCTGG	0.979
CTTAACTGGG	1.05
TGGTCGAGGG	1.01
AGTGGCGACT	1.02

Sequence	switch fluorescence ratio
TAAAGTCTAG	0.964
CAGAATGACC	0.99
CGCTTCGACC	2.14
ACATAGTGAT	1.02
ACGGCCCTAA	1.02
CAATTTAGGG	0.98
ACTATGGGCA	0.965
TTCTAATGGA	0.995
GGGTGTAAAT	0.948
AGCTTGGAAC	1.02
TGTGTAATCA	1.02
TCGAAGAGTC	0.984
GCGCATTCG	1.05
AAGATGGTCC	1.03
TAAGACCGTT	1.01
CACTGATTGT	1.02
AAATTTATT	1.01
TTCGAGGCAG	0.997
CCTGTTGTTC	1.05
GCACAGATCC	1
TCGGGGTGGA	1.01
ATAAGCGACG	1.05
GTGGTAGTGC	0.977
GCCTAGCTCG	1.04
ATATAAAAAC	1.02

Sequence	switch fluorescence ratio
ATTGTTCTAT	1.01
ATTCTAATTT	0.971
CGTATAGAG	0.969
ATACACGGTA	1.09
CTAAGCTAGT	1.22
GGTTGTGCTG	0.995
ACGGGTGCTA	1
AGGTTCTCGA	0.986
GCTCAGCATG	1.29
TAAGTCCGTA	0.891
CACTCTGCTC	2.04
CGGGGGGAAT	1.05
ATTTGAGGCT	1.06
TAATTTAGGC	0.913
TTTTGTTATC	0.997
GCTTTCCAGT	1.02
GTGGGGTGAG	1.06
GAACTAGCAG	0.978
CCGCGGTCGG	1.14
GCACGAACTT	1.33
TAATAAGGCA	1.04
ACCATGGCCA	1.02
GGTAGGCTGA	0.988
CTATTGGGT	0.963
TGGGGAGCTA	1.07

Source: the supplement of paper PMC10126150
